Drawing on article PMC12136788, this text covers binding signal for 22 molecules.

The list shows a part of the results.

T1: UNK ZnF1-6 (called full-length) (human, UniProt Q9C0B0 30-357)
T1 sequence: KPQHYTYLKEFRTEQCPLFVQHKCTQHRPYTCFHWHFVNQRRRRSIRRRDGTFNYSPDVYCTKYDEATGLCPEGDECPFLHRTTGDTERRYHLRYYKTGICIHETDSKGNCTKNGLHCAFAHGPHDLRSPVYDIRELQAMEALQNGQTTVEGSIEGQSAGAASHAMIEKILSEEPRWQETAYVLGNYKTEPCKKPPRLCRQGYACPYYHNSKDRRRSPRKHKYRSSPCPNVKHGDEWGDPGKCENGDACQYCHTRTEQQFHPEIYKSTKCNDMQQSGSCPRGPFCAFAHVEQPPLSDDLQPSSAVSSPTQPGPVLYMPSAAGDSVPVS

B1: ENSG00000136451:be:win_4351|3pUTR|ENSG00000136451|bound_else_gene|NA|bound_elsewhere_windowed (ssRNA)
RNA: GGGAGUUCUACAGUCCGACGAUCCCCCUCCUACGGUGUGCUCCUGAAUGAAGGUUUCUAUGUAAGCAGAUGAUGAUUUUACCUGUCAAUACCAGCACUGUAUUACUAACAUGCAAAAUACUGCAGAUUUAUUUUGAAAAUUAACAACAGAGGAUUGAGCAUCA
B2: chr5:136975339:136975545:-|3pUTR|ENSG00000152377|msi1|FALSE|unique (ssRNA)
RNA: GGGAGUUCUACAGUCCGACGAUCAGAGCCCAUCAAAUCCUGAGUGUCAGUUUGUUGUCCCUAUUGUAGAUGAAAUAGUGAUGUAGCAAAAACCUAGUAAAUUCUGAAUGCUUUUCCACGUAGACUUAUCUGGAAUGUGAACACCAACAGAGGAUUGAGCAUCA
B3: chr12:50748518:50748596:+|3pUTR|ENSG00000066084|msi1_unk|FALSE|overlapping (ssRNA)
RNA: GGGAGUUCUACAGUCCGACGAUCUCAAAUUCAAACUACAGUACUGUGUAAUUAUGUAUAAAGUUUUUUUAUUUAUUUGAAGUUAGACUAGAUAUACGUUUUUAAAUUUAACAUCUGGCUGGACAGUGUUCUAUUAACUCAUUGCAACAGAGGAUUGAGCAUCA
B4: chr12:14497711:14497812:+|CDS|ENSG00000171681|unk|FALSE|unique (ssRNA)
RNA: GGGAGUUCUACAGUCCGACGAUCACAGCGUCUGCCCCCAGAAGCUGCCAGCACAUCUCUGCCUCAGAAGCCACACUUGAAGUUAGCACGCGUUCAGAGUCAAAAUGGCAUAGUACUGUCAUGGAGUGUCCUGGAGGUGGAUCGCAACAGAGGAUUGAGCAUCA
B5: chr1:111117940:111118053:-|3pUTR|ENSG00000156171|unk|total|mutant (ssRNA)
RNA: GGGAGUUCUACAGUCCGACGAUCAGGCUGACAGUAACACUGAUGAAUGCUGAUAAUCAGGAAACAUGAAAGAAGCCAUUUGACCGAUUAUUCUAAAGGAUAUCAUCAAGAAGACUAUUAAAAACACCUAUGCCUAUACUUUUUCAACAGAGGAUUGAGCAUCA
B6: chr2:96301550:96301651:-|CDS|ENSG00000144028|msi1|total|mutant (ssRNA)
RNA: GGGAGUUCUACAGUCCGACGAUCAAGGCGAAAGGAGAUUGACCUGCUGCUGGGUCAAACAGAUGAUACCAGAUACCAUGUGCCCGUGAACCUGGGCAAAAAGAUCACAGACUAUGGUGGAGAUAAGGAAAUCCAAAAUAUGGGCAACAGAGGAUUGAGCAUCA
B7: chr4:140550230:140550341:+|CDS|ENSG00000179387|unk|FALSE|unique (ssRNA)
RNA: GGGAGUUCUACAGUCCGACGAUCGAAUUUGACAAGUUUUGGUUUGAAGAAGAACCAGAAAGCAUUAUGUAUUUCAAUUUGUAUAGAGAGAAGUUUCAUGAAAAGAUUAAAGGACUUUUACUGGAUUGUAAUGUAGCACUUACUCAACAGAGGAUUGAGCAUCA
B8: chr15:65327126:65328908:-|three_prime_utr|ENSG00000174498|control|control|control (ssRNA)
RNA: GGGAGUUCUACAGUCCGACGAUCUGAACUAACAUUUUUCUUUAAAAAGCAAAACUUAAAAAAAAAAAAAAAGAGGAGAGAGAUAGAGGAAGGUGAAUUAGACUCCAAAAGAUGACCCUGCUGUAGCUGGGCCCUGACACUGUCCAACAGAGGAUUGAGCAUCA
B9: ENSG00000070961:be:win_3201|CDS|ENSG00000070961|bound_else_gene|NA|bound_elsewhere_windowed (ssRNA)
RNA: GGGAGUUCUACAGUCCGACGAUCAUUCCUCAAAGAAGCUGGUCAUGGAACACAAAAGGAAGAAAUACCUGAGGAGGAAUUAGCAGAGGAUGUUGAAGAGAUUGAUCACGCUGAAAGGGAGUUGCGGCGUGGCCAAAUCUUGUGCAACAGAGGAUUGAGCAUCA
B10: ENSG00000130818:stop:overlap|stop_codon|ENSG00000130818|stop_codon|NA|stop_codon (ssRNA)
RNA: GGGAGUUCUACAGUCCGACGAUCAGCAAUGCGGGAAAGCUUACAGUCAUCCCCGUUCACUUCGAAGACAUGAACAAAUUCACUAGUGAGAAACUGUCCAUGUAAUAAAUGUGGGAAAGCUCUCAUUUGUUCCAGUUCACUUUACAACAGAGGAUUGAGCAUCA
B11: chr10:110887682:110887783:+|CDS|ENSG00000150593|msi1|FALSE|bound_elsewhere (ssRNA)
RNA: GGGAGUUCUACAGUCCGACGAUCGUUAAGAGAUUUAAAUCUUGGUGAAAUGAAAAGUGGAGUACCAGUGUUGGCAGUAUCCUUAGCAUUGGAGGGGAAGGCUAGUCAUAGAGAGAUGACAUCUAAGCUUCUUUCUGACCUUUGCAACAGAGGAUUGAGCAUCA
B12: chr17:64498535:64498649:-|3pUTR|ENSG00000108654|unk|total|mutant (ssRNA)
RNA: GGGAGUUCUACAGUCCGACGAUCUUAAACUGAGGCUUUAAUUGAUGUUAAUGCCUUAUGUCAAAUGUAAAGUCCGAAUUUGCCCGGGCUGGGACCGGGAGUGAUAUUUCCCGGACUCCGACAUUGAAAACUAAUUCAGCCUGUCAACAGAGGAUUGAGCAUCA
B13: chr12:3284911:3285012:+|3pUTR|ENSG00000011105|msi1|FALSE|unique (ssRNA)
RNA: GGGAGUUCUACAGUCCGACGAUCGGAGGACAGAACCGUUGGCAUUAUCAGGAUUCGUGUUUUGUGGGGGUGGGAGUGGAGAGUAGGGUGGUCUUGUGAGUUGUGCAGGGUGAAGACCGCUUCCCUGAGACAGGGGCAGUGGUGCAACAGAGGAUUGAGCAUCA
B14: chr3:23954599:23954720:+|CDS|ENSG00000174738|unk|FALSE|unique (ssRNA)
RNA: GGGAGUUCUACAGUCCGACGAUCAGUGAGGGUUCUGAGAAUAGUUUCCAGUCCUCCUCCUCUUCUGUUCCAUCUUCUCCAAAUAGCUCUAAUUCUGAUACCAAUGGUAAUCCCAAGAAUGGUGAUCUCGCCAAUAUUGAAGGCCAACAGAGGAUUGAGCAUCA
B15: chr17:69016252:69016390:-|CDS|ENSG00000154258|control|control|control (ssRNA)
RNA: GGGAGUUCUACAGUCCGACGAUCUUUUCAAUAGCAUGUAAUACAAAACGGCUGAAUUGCUUUCCUGUCCUCCUGGAUGUCAUUAGCAAUGGACUACUUGGAAUUUUUAAUUCGUCAGAACACAUUCAGACUGACAGAAGCACACAACAGAGGAUUGAGCAUCA
B16: chr22:17178789:17181576:-|three_prime_utr|ENSG00000093072|control|control|control (ssRNA)
RNA: GGGAGUUCUACAGUCCGACGAUCGUUGGAGAGUGAGAAAAAUACUUUCAUGGAAAUCUGGAAGAAGAGAUGGGAUAAGUUCAUAGCAGAUGUGGCUACAAAGUGAGGAGAAGCUAGCCAGCCCUCUACAAGCUGUCUUCUUGCCAACAGAGGAUUGAGCAUCA
B17: chr2:32415736:32415837:+|CDS|ENSG00000115760|unk|total|mutant (ssRNA)
RNA: GGGAGUUCUACAGUCCGACGAUCGCAGAGGAAUGUCCGUGGUGGAUAUUCCGUGCUUUAUAAAAUGAAUUAUGCCACUCGGACCGUGACUUCCGAAGAGGAGCCAAUAAAAAUACAACAUAUCAAAGAUCCCCAGGACACAAUCAACAGAGGAUUGAGCAUCA
B18: chr3:187234081:187235683:-|three_prime_utr|ENSG00000127241|control|control|control (ssRNA)
RNA: GGGAGUUCUACAGUCCGACGAUCACUUCCGACAGCACACUCCACAUUACUUAUCAGACCAUAUGGAAUGGAACACACUGACCUAGCGGUGGCUUCUCCUACCGAGACAGCCCCCAGGACCCUGAGAGGCAGAGUGUGGUAUAGCAACAGAGGAUUGAGCAUCA
B19: chr12:52514574:52514941:-|three_prime_utr|ENSG00000186081|control|control|control (ssRNA)
RNA: GGGAGUUCUACAGUCCGACGAUCCCUGCUGCAAGUCACUGCCUUCCAAGUGCAGCAACCCAGCCCAUGGAGAUUGCCUCUUCUAGGCAGUUGCUCAAGCCAUGUUUUAUCCUUUUCUGGAGAGUAGUCUAGACCAAGCCAAUUCAACAGAGGAUUGAGCAUCA
B20: chr1:37590682:37590793:-|CDS|ENSG00000134697|unk|total|mutant (ssRNA)
RNA: GGGAGUUCUACAGUCCGACGAUCAAGCAAAGCAAGUUACCAAUGUCUCUUCUCCAUGAUCGAAUCCGGCCUCAUGUAAGAUGCCGGAUAUCCCUGGUGAUGGAAUUUCCUGGGCAAACUCCAUGCAGAUCCCUCUCUAACAUACAACAGAGGAUUGAGCAUCA
B21: chr6:122432834:122432935:+|3pUTR|ENSG00000025156|msi1|FALSE|unique (ssRNA)
RNA: GGGAGUUCUACAGUCCGACGAUCAUAUAUAGAAAGAUCGGGGGUGGGAUGGGAUGGAGUGAGCCCCAUCCAGUUAGUUGGACUAGUUUUAAAUAAAGGUUUUCCGGUUUGUGUUUUUUUGAACCAUACUGUUUAGUAAAAUAACAACAGAGGAUUGAGCAUCA
B22: chr3:125228010:125228111:-|3pUTR|ENSG00000163848|msi1|total|mutant (ssRNA)
RNA: GGGAGUUCUACAGUCCGACGAUCAGUUCUCUUCAUAUUUCAUAACUACAUUUCAAUAAUUCUAAACUUUCUACAUUGAUUUUCCGAUACUUAUUUUUCAAGCUUGGUUUCUCAGCUGAUCAGAUGAAUUUAUUCAACUUCAAUCAACAGAGGAUUGAGCAUCA

This assay has as its target T1, UNK ZnF1-6 (called full-length). As to the kind of experiment: nsRBNS (natural sequence RNA bind-n-seq); RBNS binding buffer (assumed for nsRBNS): 25 mM Tris pH 7.5, 150 mM KCl, 3 mM MgCl2, 0.01% Triton X-100, 500 ug/ml BSA, 20 U/ml SUPERase-In, 4 C; UNK is unkempt and MSI1 is Musashi-1; names of the RNAs are library labels; protein concentration not given here; high values mean tight binding.
For B1, the binding signal came to 0.632 enrichment R.
Take B2: the binding signal was found to be 7 enrichment R.
Molecule B3 showed a binding signal of 6.56 enrichment R.
In the case of B4 it was 0.627 enrichment R; in that of B5, 0.383 enrichment R.
B6 gave a binding signal of 0.638 enrichment R.
Next, B7: 0.651 enrichment R.
In the case of B8 it was 1.85 enrichment R; in that of B9, 0.718 enrichment R.
In the case of B10 it was 2.96 enrichment R.
B11 came in with a binding signal of 0.79 enrichment R.
Molecule B12 yielded a binding signal of 0.347 enrichment R.
Next, B13: 1.2 enrichment R.
In the case of B14 it was 2.36 enrichment R; in that of B15, 0.516 enrichment R; in that of B16, 0.965 enrichment R.
On to B17, for which the binding signal is 0.902 enrichment R.
In the case of B18 it was 0.798 enrichment R; in that of B19, 0.811 enrichment R; in that of B20, 0.443 enrichment R.
In turn, B21 yielded a binding signal of 9.25 enrichment R.
B22 yielded a binding signal of 15.6 enrichment R.
